Laboratory results published in article PMC10516938, “Conformational dynamics of cohesin/Scc2 loading complex are regulated by Smc3 acetylation and ATP binding” (Nature Communications, 2023).
Substitutions are numbered along the chain they refer to. Names may count otherwise. Results are given in words; binding and its absence hold for the method and conditions named. In cells and extracts the contact can be indirect. Some entries that bind do so weakly or less than the wild type.

Assays:
Scc1-PK (S. cerevisiae) = biological target: T1, Scc1-PK (S. cerevisiae) (UniProt Q12158); assay: co-IP; Scc1-PK immunoprecipitated with anti-PK from whole-cell extracts of cross-linker-treated yeast cells (exponentially grown or late G1 arrested); co-precipitated Smc3-HA, Smc1-Myc or Scc2-FLAG detected by western blot
T1 sequence: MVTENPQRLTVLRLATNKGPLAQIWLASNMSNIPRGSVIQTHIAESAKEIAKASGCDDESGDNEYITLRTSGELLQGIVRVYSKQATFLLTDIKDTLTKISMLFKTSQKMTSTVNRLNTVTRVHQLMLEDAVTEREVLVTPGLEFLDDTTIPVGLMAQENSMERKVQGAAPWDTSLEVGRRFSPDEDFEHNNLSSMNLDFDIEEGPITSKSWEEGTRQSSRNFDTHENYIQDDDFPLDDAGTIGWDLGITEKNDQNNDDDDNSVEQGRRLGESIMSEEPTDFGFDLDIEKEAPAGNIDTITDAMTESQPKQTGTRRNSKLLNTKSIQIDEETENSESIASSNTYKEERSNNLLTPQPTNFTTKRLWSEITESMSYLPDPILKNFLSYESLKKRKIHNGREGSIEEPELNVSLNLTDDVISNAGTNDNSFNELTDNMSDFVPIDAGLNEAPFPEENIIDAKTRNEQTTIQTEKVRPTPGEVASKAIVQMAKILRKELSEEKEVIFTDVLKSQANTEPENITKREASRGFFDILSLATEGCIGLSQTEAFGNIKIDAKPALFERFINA

[1] = biological target: T2, Smc3 S72C K1004C (S. cerevisiae) (UniProt P47037); assay: cross-linking; in vivo BMOE cross-link of cysteine pairs in yeast cells arrested in late G1 by non-degradable Sic1(9m); Scc1-PK immunoprecipitated, western blot, band intensities quantified
T2 sequence: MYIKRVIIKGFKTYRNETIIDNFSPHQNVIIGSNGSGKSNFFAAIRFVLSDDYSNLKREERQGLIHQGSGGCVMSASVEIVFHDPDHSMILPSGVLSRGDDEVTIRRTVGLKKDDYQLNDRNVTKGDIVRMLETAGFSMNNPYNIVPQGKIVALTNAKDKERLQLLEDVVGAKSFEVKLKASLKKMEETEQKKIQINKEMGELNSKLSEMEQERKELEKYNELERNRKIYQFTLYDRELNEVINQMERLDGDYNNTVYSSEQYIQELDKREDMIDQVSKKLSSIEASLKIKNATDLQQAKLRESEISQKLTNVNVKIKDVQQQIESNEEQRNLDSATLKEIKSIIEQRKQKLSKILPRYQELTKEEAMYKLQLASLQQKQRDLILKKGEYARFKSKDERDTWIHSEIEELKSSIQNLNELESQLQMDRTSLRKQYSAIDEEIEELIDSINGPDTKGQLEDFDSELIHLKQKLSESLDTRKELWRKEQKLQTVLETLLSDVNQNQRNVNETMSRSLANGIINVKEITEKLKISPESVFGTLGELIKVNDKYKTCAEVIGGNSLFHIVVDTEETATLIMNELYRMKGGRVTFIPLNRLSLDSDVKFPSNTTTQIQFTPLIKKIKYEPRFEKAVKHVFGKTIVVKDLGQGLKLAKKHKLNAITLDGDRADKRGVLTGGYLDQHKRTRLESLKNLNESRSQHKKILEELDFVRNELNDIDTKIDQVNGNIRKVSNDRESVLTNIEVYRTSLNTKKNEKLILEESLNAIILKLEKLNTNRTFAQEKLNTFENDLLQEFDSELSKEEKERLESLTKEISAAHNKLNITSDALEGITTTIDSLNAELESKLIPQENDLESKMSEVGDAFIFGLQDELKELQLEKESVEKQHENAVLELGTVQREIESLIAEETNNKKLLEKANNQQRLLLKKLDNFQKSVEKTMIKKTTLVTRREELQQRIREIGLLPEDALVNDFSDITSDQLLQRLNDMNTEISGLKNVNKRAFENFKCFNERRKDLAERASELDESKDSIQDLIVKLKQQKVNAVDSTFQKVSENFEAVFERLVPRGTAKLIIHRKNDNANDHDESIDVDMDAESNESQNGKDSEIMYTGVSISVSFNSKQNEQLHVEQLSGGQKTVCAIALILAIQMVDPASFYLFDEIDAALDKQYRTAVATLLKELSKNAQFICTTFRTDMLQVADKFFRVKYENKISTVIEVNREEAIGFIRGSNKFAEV

[2] = biological target: T3, Smc3^E1155Q S72C K1004C (S. cerevisiae) (UniProt P47037); assay: as above
T3 sequence: T2 sequence with E1155Q

binding (Scc1-PK (S. cerevisiae)): binds | binding [1]: binds | binding [2]: binds
B1: Scc2 D369C E819C (protein, UniProt Q04002 1-1493)
chain: MSYPGKDKNIPGRIIEALEDLPLSYLVPKDGLAALVNAPMRVSLPFDKTIFTSADDGRDVNINVLGTANSTTSSIKNEAEKERLVFKRPSNFTSSANSVDYVPTNFLEGLSPLAQSVLSTHKGLNDSINIEKKSEIVSRPEAKHKLESVTSNAGNLSFNDNSSNKKTKTSTGVTMTQANLAEQYLNDLKNILDIVGFDQNSAEIGNIEYWLQLPNKKFVLTTNCLTKLQMTIKNITDNPQLSNSIEITWLLRLLDVMVCNIKFSKSSLKMGLDDSMLRYIALLSTIVLFNIFLLGKNDSNLHRESYIMEPVNFLSDLIESLKILTIEYGSLKIEFDTFQEALELLPKYIRNGPFLDDNVTAKLVYIFSCLLMNNDIEATTNIQFQSFWDNVKRISSDILVSLFGSFDQQRGFIIEELLSHIEKLPTKRIQKKLRKVGNQNIYITDFTFTLMSMLENINCYSFCNQMKDIAPENIDLLKNEYKKQEEFLFNIVEHINDTILERFFKNPSALRYVIDNFVQDLLLLISSPQWPVTEKILSSLLKRLLSVYSPSMQVSANIETICLQLIGNIGSTIFDIKCSTRDHEDNNLIKMINYPETLPHFFKSFEECIAYNETIKCRRSATRFLWNLRLGTILILEEYTKDAKEQIITVDNELKKILEQIKDGGLGPELENREADFSTIKLDYFSILHAFELLNLYDPYLKLILSLLAKDKIKLRSTAIKCLSMLASKDKVILSNPMVKETIHRRLNDSSASVKDAILDLVSINSSYFEFYQQINNNYNDDSIMVRKHVLRINEKMYDETNDIVTKVYVIARILMKICDEEDNIIDMARLILLNRWILKVHEVLDQPEKLKEISSSVLLVMSRVAIMNEKCSQLFDLFLNFYLLNKEAHSKEAYDKITHVLTILTDFLVQKIVELNSDDTNEKNSIVDKQNFLNLLAKFADSTVSFLTKDHITALYPYMVSDEKSDFHYYILQVFRCTFEKLANFKQKFLYDLETTLLSRLPKMNVREIDEAMPLIWSVATHRHDTARVAKACSSCLSHLHPYINKANNEEAAIVVDGKLQRLIYLSTGFARFCFPKPSNDKIAFLQEGETLYEHITKCLLVLSKDKITHVIRRVAVKNLTKLCGNHPKLFNSRHVLHLLDKEFQSDQLDIKLVILESLYDLFLLEERKSVRNTGVNSTLSSNSILKKKLLKTNRVEFANDGVCSALATRFLDNILQLCLLRDLKNSLVAIRLLKLILKFGYTNPSHSIPTVIALFASTSQYIRHVAYELLEDLFEKYETLVFSSLSRGVTKAIHYSIHTDEKYYYKHDHFLSLLEKLCGTGKKNGPKFFKVLKRIMQSYLDDITDLTSTNSSVQKSIFVLCTNISNITFVSQYDLVSLLKTIDLTTDRLKEVIMDEIGDNVSSLSVSEEKLSGIILIQLSLQDLGTYLLHLYGLRDDVLLLDIVEESELKNKQLPAKKPDISKFSAQLENIEQYSSNGKLLTYFRKHVKDT
